{"source": "PubChem BioAssay AID624296", "about": "(National Center for Advancing Translational Sciences (NCATS), 2012)", "note": "The whole screen tested about 350,000 compounds, of which about 9,900 (2.8%) were called active. This list was built around the results that the source calls inconclusive (neither active nor inactive); the mix of calls is not that of the screen. The call rests on the fitted dose curve; in most records, active means well fitted activation curve with a large enough effect; inconclusive means small, poorly fitted or top-dose-only effect; inactive means no such curve, though single readings can be large or run the other way. No potency is given beside an inconclusive call; the fits are too rough. Potency means the concentration at half of the fitted maximal effect; tags describe the fitted curve by direction and shape.", "data": [{"assay": "A quantitative high throughput screen for small molecules that induce DNA re-replication in MCF 10a normal breast cells; further: nearly all actives have a fitted effect of over 50% in size; on activity, positive = re-replication: % of control where 0% means no effect.", "settings": "MCF 10A DNA re-replication, Hoechst nuclear intensity, 48 h; activity, positive = re-replication: at 46.1 µM (top of the series)", "values": [{"compound": "COc1ccc(N(CC(=O)Nc2cc(Cl)ccc2C)S(=O)(=O)c2c(C)noc2C)cc1", "Potency": "active: 4.11 µM"}, {"compound": "CCn1c(=O)c(=O)[nH]c2cc(C(=O)NC3CCCc4ccccc43)ccc21", "note": "(centres undefined)", "Potency": "inconclusive [activator, single point]"}, {"compound": "COc1cccc2cc(C(=O)C3=C(O)C(=O)N(CCN4CCOCC4)C3c3ccc(Cl)cc3)oc12", "note": "(centres undefined)", "Potency": "inconclusive [activator, single point]"}, {"compound": "Cc1ccc([C@@H]2CC=C(C(=O)O)[C@H](c3ccc(Br)cc3)N2S(=O)(=O)c2ccccc2C)cc1", "Potency": "inconclusive [activator, single point]"}, {"compound": "CCC(=O)N(CCC1(C(C)C)CCOC(C)(C)C1)Cc1ccco1", "note": "(centres undefined)", "activity, positive = re-replication": "inactive: -105% [at 0.0737 µM]"}, {"compound": "CCN(CC)C(=O)Oc1ccc2c(c1)O/C(=C\\c1ccco1)C2=O", "Potency": "inconclusive [activator, partial curve, poor fit]"}, {"compound": "NC(=O)c1c(NC(=O)c2cccs2)sc2c1CCCCCC2", "Potency": "inactive"}, {"compound": "O=C(C[n+]1cc2ccccc2c2ccccc21)c1ccccc1", "Potency": "inconclusive [activator, partial curve, poor fit]"}, {"compound": "N#Cc1nccnc1S(=O)(=O)c1cccs1", "Potency": "inconclusive [activator, single point]"}, {"compound": "Cc1nnc(-c2ccc(Oc3ccc(Cl)cc3)c([N+](=O)[O-])c2)o1", "Potency": "inconclusive [activator, full curve, poor fit]"}, {"compound": "Cc1cc(C(=O)CSc2n[nH]c(N)n2)c(C)n1-c1ccccc1", "Potency": "inconclusive [activator, single point]"}, {"compound": "Cc1nc2cc(NC(=O)c3cccc(S(C)(=O)=O)c3)ccc2o1", "Potency": "inactive"}, {"compound": "CCCN(CCC)CCNC(=O)c1cc2c(=O)n(C)c3ccccc3c2n1C", "Potency": "inconclusive [activator, single point]"}, {"compound": "CCCc1nc2oc3c(OCC)ncnc3c2c2c1COC(C)(C)C2", "Potency": "inactive"}, {"compound": "Nc1nonc1C(=O)NCCNCc1c(OCc2ccccc2F)ccc2ccccc12", "Potency": "inconclusive [activator, single point]"}, {"compound": "Cc1ccc(C)c(OCCCN2CCNCC2)c1", "Potency": "inconclusive [activator, single point]"}, {"compound": "COc1ccc(C2/C(=C(\\O)c3cccc(OC)c3)C(=O)C(=O)N2c2ccccn2)cc1", "note": "(centres undefined)", "Potency": "inconclusive [activator, partial curve, poor fit]"}, {"compound": "COc1ccc(N2CC(C)Cn3c2nc2c3c(=O)n(Cc3ccc(F)cc3)c(=O)n2C)c(OC)c1", "note": "(centres undefined)", "Potency": "inactive"}, {"compound": "O=C(/C=C/c1ccc(Cl)cc1)NCCN1CCOCC1", "Potency": "inconclusive [activator, partial curve, poor fit]"}, {"compound": "CN(C)c1ccc(/C=C/c2cc[n+](C)cc2)cc1", "Potency": "inconclusive [activator, single point]"}, {"compound": "COc1ccc(CCNC(=O)CC2SC(=NCc3ccccc3OC)NC2=O)cc1", "note": "(centres undefined)", "Potency": "inactive"}, {"compound": "O=C(O)C(CO)N=Cc1c(O)c2ccccc2oc1=O", "note": "(centres undefined)", "Potency": "inactive"}, {"compound": "CN1/C(=C\\C(=O)c2oc3ccccc3c2N)C(C)(C)c2ccccc21", "Potency": "inconclusive [activator, partial curve, poor fit]"}, {"compound": "Cc1ccc(OCCOCCn2cnc3ccccc3c2=O)c([N+](=O)[O-])c1", "Potency": "inactive"}, {"compound": "Cc1ncsc1C(=O)N1N=C2/C(=C/c3ccccc3)CCCC2C1c1ccccc1", "note": "(centres undefined)", "Potency": "inactive"}, {"compound": "Cc1cc(C)cc(NS(=O)(=O)c2ccc(NC(=S)NC(=O)c3cccs3)cc2)c1", "Potency": "inconclusive [activator, partial curve, poor fit]"}, {"compound": "O=C(COc1cccc2ccccc12)N/N=C/C=C/c1ccccc1", "Potency": "inconclusive [activator, full curve]"}, {"compound": "CC1CCCCC1NC(=O)CN1CCN(Cc2ccccc2Cl)C1=O", "note": "(centres undefined)", "Potency": "inconclusive [activator, single point]"}, {"compound": "CCOc1ccc(NCc2nnc(SCc3ccc(Cl)cc3)n2-c2ccccc2)cc1", "Potency": "inconclusive [activator, single point]"}, {"compound": "CCc1ccc(S(=O)(=O)NCc2ccc(N3CCN(C)CC3)cc2)cc1", "Potency": "inconclusive [activator, full curve, poor fit]"}, {"compound": "CCN1CCN(Cc2ccc(OCc3ccccc3)cc2)CC1", "Potency": "inconclusive [activator, full curve, poor fit]"}, {"compound": "C/C(=N\\NC(=O)CNC(=O)C(c1ccccc1)c1ccccc1)c1ccc(C(C)(C)C)cc1", "Potency": "inconclusive [activator, single point]"}, {"compound": "O=C(Oc1ccccc1Cl)c1ccccc1", "Potency": "active: 16.4 µM"}, {"compound": "CC1(C)N=C(N)N=C(N)N1c1cccc(CN)c1", "Potency": "inactive"}, {"compound": "CCN1CCN(C(c2ccccn2)c2c(NC(=O)c3ccccc3)sc(C)c2C)CC1", "note": "(centres undefined)", "Potency": "inconclusive [activator, single point]"}, {"compound": "COc1ccccc1CNc1ncc(-c2ccccc2)n1C", "Potency": "inconclusive [activator, single point]"}, {"compound": "O=C(/C=C/c1ccc(Br)cc1)c1ccc(NC2=NCCCS2)cc1", "Potency": "active: 5.17 µM"}, {"compound": "Cc1ccccc1-c1cccc([C@@H]2C[C@H]3[C@H](CON3C)CN2S(=O)(=O)c2ccccc2C)c1", "Potency": "inactive"}, {"compound": "COc1ccc(C2C3=C(CC(C)(C)CC3=O)Nc3c2c(=O)[nH]c(=O)n3Cc2ccccc2)cc1", "note": "(centres undefined)", "Potency": "inconclusive [activator, single point]"}, {"compound": "CC(C)(C)n1nnnc1C(c1cccnc1)N1CCN(c2cccc(C(F)(F)F)c2)CC1", "note": "(centres undefined)", "Potency": "inactive"}, {"compound": "COc1ccccc1CNCC(=O)Nc1ccc(N(C)C)cc1", "Potency": "inactive"}, {"compound": "O=C(NC1CCCCCCC1)c1ccc(Br)o1", "Potency": "inactive"}, {"compound": "CCC(CC)C(=O)NCCc1cc2c(C)ccc(C)c2[nH]c1=O", "Potency": "inactive"}, {"compound": "COc1cccc(N2CCN(C(=O)c3ccc4nc(N5CCCCC5)sc4c3)CC2)c1", "Potency": "inactive"}, {"compound": "COc1cc(/C=N/NC(=O)Cc2nnc(NC(=O)c3ccccc3)s2)ccc1O", "Potency": "inconclusive [activator, single point]"}, {"compound": "CCn1cc(C(=O)N2CCc3ccccc32)c(=O)c2cc(S(=O)(=O)N3CCCC3)ccc21", "Potency": "inconclusive [activator, partial curve, poor fit]"}, {"compound": "Cc1ccc(S(=O)(=O)NCCC(=O)NNC(=O)c2ccccc2O)cc1C", "Potency": "inconclusive [activator, partial curve, poor fit]"}, {"compound": "CC(=O)N(c1cccc(Cl)c1)c1nc(C)cc(C)c1C#N", "Potency": "inactive"}, {"compound": "CCC(C)(C)NC(=O)C(C(C)C)N(CC1CCCO1)C(=O)CNS(=O)(=O)c1ccc(F)cc1", "note": "(centres undefined)", "Potency": "inactive"}, {"compound": "Cc1cc(OCc2cc(C(=O)N3CCC(Oc4cccnc4)CC3)no2)cc(C)c1Cl", "Potency": "active: 20.6 µM"}, {"compound": "O=Nc1c(O)n(Cc2ccc(Cl)cc2)c2ccccc12", "Potency": "inconclusive [activator, single point]"}, {"compound": "O=C(CNC1CCCC1)Nc1ccc(N2CCCCCC2)cc1", "Potency": "inconclusive [activator, single point]"}, {"compound": "O=C(c1cc(-c2ccc(Br)cc2)on1)N1CCOCC1", "Potency": "inactive"}, {"compound": "COc1ccc(C(=O)CCC(=O)O)c2ccccc12", "Potency": "inactive"}, {"compound": "CN1CCN(C(=O)CCCN2C(=O)/C(=C/c3cccc(Br)c3)SC2=S)CC1", "Potency": "active: 23.1 µM"}, {"compound": "Cc1c(Cl)cccc1NC(=S)NCCc1ccccn1", "Potency": "inconclusive [activator, single point]"}, {"compound": "CC(=O)NCCC(=O)Nc1cc(S(=O)(=O)N2CCCCC2)ccc1Oc1ccccc1", "Potency": "inactive"}, {"compound": "CN(CC(=O)Nc1cccc(F)c1)C(=O)c1ccc(-c2cccc(C(F)(F)F)c2)o1", "Potency": "inactive"}, {"compound": "O=C(N/N=C1\\CC(c2ccccc2)Oc2ccccc21)c1ccc(O)cc1", "note": "(centres undefined)", "Potency": "inconclusive [activator, partial curve, poor fit]"}, {"compound": "Cc1ccc(NS(=O)(=O)c2ccc3c(c2)CCC(=O)N3)cc1", "Potency": "inactive"}, {"compound": "Cc1ccc(NC(=O)CN2CCCN(S(=O)(=O)c3ccc(Br)s3)CC2)cc1", "Potency": "inactive"}, {"compound": "NS(=O)(=O)c1ccc(CCNC(=O)C(=O)NCC2OCCN2C(=O)c2ccc3c(c2)OCO3)cc1", "note": "(centres undefined)", "Potency": "inactive"}, {"compound": "CCN1C(=O)/C(=C\\c2ccc3c(c2)OCO3)C(C(=O)OC)=C1C", "Potency": "inactive"}, {"compound": "O=C(NCC1CCCO1)c1cc2c([nH]c3ccccc32)c(-c2cccc(Cl)c2)n1", "note": "(centres undefined)", "Potency": "inconclusive [activator, partial curve]"}, {"compound": "CCOC(=O)c1ccc(NC(=O)c2c(C)[nH]c(C(=O)OCC)c2C)cc1", "Potency": "inconclusive [activator, single point]"}, {"compound": "CN1CCCN(C(=O)c2ccc(Br)s2)CC1", "Potency": "inconclusive [activator, full curve, poor fit]"}, {"compound": "CCOC(=O)C1=CN(Cc2cccc(F)c2)S(=O)(=O)N(CC)C1c1ccc2ccccc2c1", "note": "(centres undefined)", "Potency": "inconclusive [activator, full curve, poor fit]"}, {"compound": "CCc1cccc(C)c1NC(=O)CCNC(=O)c1cccc(C)c1", "Potency": "inactive"}, {"compound": "CCOc1ccc(N/C(=N/c2nc(C)cc(C)n2)NC(C)=O)cc1", "Potency": "inactive"}, {"compound": "C=CCN1C(=O)/C(=C/c2ccc(OC(C)=O)c(OCC)c2[N+](=O)[O-])SC1=S", "Potency": "active: 3.66 µM"}, {"compound": "O=C(COc1ccccc1)NCC1CCCO1", "note": "(centres undefined)", "Potency": "inactive"}, {"compound": "CCOc1cc(N2CCOCC2)c(OCC)cc1NC(=O)COC(=O)CCOc1cc(C)ccc1C", "Potency": "inconclusive [activator, single point]"}, {"compound": "c1nc(Nc2ccc(N3CCOCC3)cc2)c2ccsc2n1", "Potency": "inactive"}, {"compound": "c1coc(-c2nn3c(Cn4nnc5ccccc54)nnc3s2)c1", "Potency": "inconclusive [activator, partial curve, poor fit]"}]}]}
